# Experimental data as given in publication PMC5515408.
# The list shows a part of the results. At the low end of the ranking the order means little.
# Target: MAX:MAX (p21) (UniProt P61244-2)
# Test: protein-binding microarray (anti-MAX antibody)
# Conditions: PBM: 15 mM Tris-HCl pH 7.5, 100 mM KCl, 0.075% NP40, 7.5 mM beta-mercaptoethanol, 375 ng/ul BSA, 8 ng/ul poly(dA-dT):(dA-dT), 550 ng complex, 60 min, room …; high values mean tight binding; double strand, one strand shown; sequences stand for … in CCGGC…TTAATAGCTAAGATTACTATATCGACG
row,Sequence,binding signal (log2 normalized fluorescence)
1,TGAATTAGCGTA,-0.761
2,TGAGGACCCGTA,-0.458
3,TGATTTCTGGTA,-1.27
4,ATTCACGTGGTA,3.26
5,TGACCTGTTGTA,0.121
6,TCCCACATGGTA,3
7,TGAATAATCGTA,-1.07
8,TGAACTTCCGTA,-0.672
9,TGAGAAGTTGTA,-1.17
10,TGAGTGACTGTA,-0.0764
11,TGATAGAACGTA,-0.81
12,TGATAGAAGGTA,-0.886
13,TGAGCGATCGTA,-0.922
14,CTGCACGTGGTA,3.26
15,TGATGTTGGGTA,-0.295
16,TGAATAGTAGTA,-0.888
17,CGACATGTAGTA,2.04
18,TGAAGCCCAGTA,-0.868
19,TGATAAAGAGTA,-1.04
20,TGAACCTGGGTA,-0.174
21,TGAAGAGGCGTA,-0.839
22,TGAACCCCAGTA,-0.421
23,TGATAAATCGTA,-1.06
24,AGACCCCTGGTA,0.429
25,TGTTACGGGGTA,-0.292

row,Sequence,binding signal (log2 normalized fluorescence)
1,TGACGATTGGTA,-0.87
2,TGATTCTGCGTA,-1.15
3,TGACACGTACAA,1.23
4,TGAGAGGGCGTA,-0.569
5,TGATGCATGGTA,2.17
6,TGAGTCTTAGTA,-0.566
7,TGCCCCGTGGTA,2.88
8,TGACCATATGTA,2.1
9,TGACGTAGTGTA,-0.527
10,TCGCACGTGGAA,3.31
11,TGAGATCACGTA,0.425
12,TGAGCGGGAGTA,-0.667
13,CGACACATGGTT,3.32
14,TGAATCTTGGTA,-0.911
15,TGACTTCGCGTA,-0.7
16,TGACACGAAGTA,0.881
17,TGACGTTGTGTA,0.0703
18,TGAATTCACGTA,0.205
19,TGACACGTGCTG,3
20,TGACTGTATGTA,-0.127
21,TGAATGGGAGTA,0.156
22,TGAATCATGGTA,1.06
23,TGAACGCACGTA,1.14
24,TGACTCCTTGTA,-0.617
25,TGACACTGCGTA,-0.0944

row,Sequence,binding signal (log2 normalized fluorescence)
1,TGACGGGCGGTA,-0.202
2,TGAGTCGGGGTA,-0.578
3,TTTCACGTAGTA,0.599
4,TGATCGAACGTA,-1.01
5,TGACCGATTGTA,-0.596
6,TGAGGGCCGGTA,-1.01
7,TGAGCAGACGTA,-0.339
8,TGACATTCAGTA,0.265
9,TGACTTTTTGTA,-0.87
10,TGACGAGTAGTA,-0.708
11,CTATTTGGACCC,-1.69
12,CTCCACGTGGTA,2.94
13,TGACCCCAGGTA,-0.103
14,TGACGTGCTGTA,1.65
15,TGAACTGATGTA,-0.133
16,TGATGGCAGGTA,0.226
17,TGAAAAGGAGTA,-0.541
18,TGACCTGAGGTA,0.0241
19,TGACGGACAGTA,-0.52
20,TGACACGTCGCC,2.12
21,TAACACGTGCTT,3.33
22,TGATGCGCTGTA,0.112
23,TGAGCAACCGTA,-0.743
24,TGACACGTTCTA,2.94
25,TGAAAGGTGGTA,0.543

row,Sequence,binding signal (log2 normalized fluorescence)
1,TGACCGTTTGTA,-0.528
2,TGATCATATGTA,1.98
3,TGACATCTGGTA,0.652
4,TGATTTCCTGTA,-1.13
5,TCTAACGTGGTA,2.94
6,TGAAAGTTTGTA,-0.749
7,TGACACGGAATA,0.766
8,TGACGCACAGTA,0.339
9,TGAATAAGGGTA,-0.853
10,TGAGCGCGCGTA,0.952
11,ATTTACAAAGCA,0.561
12,TGAAGTCCAGTA,-0.519
13,TGACGATTCGTA,-0.779
14,TGAGGTCCAGTA,-0.896
15,TGAAATGTGGTA,1.55
16,TTACACGTGCTA,3.57
17,TGATTGAAAGTA,-0.975
18,TGATATGTTGTA,-0.671
19,TGAAGCCTGGTA,0.476
20,TGACCTTACGTA,-0.175
21,TGACCGTTCGTA,-0.456
22,TGATCGGTAGTA,-0.841
23,TGACACGTTAAA,2.15
24,TGATCTTGTGTA,-0.098
25,TGACGGGGAGTA,-0.0998

row,Sequence,binding signal (log2 normalized fluorescence)
1,TGATAGTTCGTA,-1.05
2,TGACCTGAAGTA,-0.283
3,TGAAGGTGTGTA,0.672
4,TGACGGCATGTA,2.78
5,TGACACGTCTTG,1.14
6,TGATAGTTTGTA,-1.12
7,TGCCACGCGGAA,3.15
8,TGATGCTTAGTA,-0.252
9,TGATGTAACGTA,-0.0372
10,TGAGACGTGGTA,1.31
11,TGAGTCGAGGTA,-0.576
12,TGATAAACGGTA,-0.892
13,TGAAAGATCGTA,-0.72
14,TGATGATCTGTA,-0.226
15,TGAAGAAGGGTA,-0.89
16,TGAAGTTATGTA,-0.594
17,TGATATGACGTA,-0.457
18,TGACATGCAGTA,2.07
19,TGTACCGTGGTA,1.7
20,TGGCACTTGGTT,-0.0227
21,TGATGTAATGTA,-0.17
22,TGAAACTGGGTA,-0.857
23,TGAACAGTCGTA,-0.545
24,TGACTTCCGGTA,-0.852
25,TGCCACGAGGAA,3.34

row,Sequence,binding signal (log2 normalized fluorescence)
1,TGAAACAGTGTA,-0.473
2,TGAATCACAGTA,-0.379
3,TGACCAGGTGTA,1.54
4,TGATATAGAGTA,-0.807
5,TGAGCGCTGGTA,-0.393
6,TGACAATTCGTA,-0.375
7,TGAGTATCTGTA,-1.18
8,TGAATATCAGTA,-0.969
9,TGACTGGGAGTA,-0.653
10,TGATCTCTAGTA,-1.13
11,TGAGCTTCAGTA,-0.854
12,TGAATCAGAGTA,-0.19
13,TGACTATTGGTA,-0.947
14,TGATACGCGGTA,-0.535
15,TGATTGGGCGTA,-0.9
16,TGAAATAAGGTA,-0.429
17,TGAGCAAAGGTA,-0.975
18,TGACATGCTGTA,2.75
19,TGACACGTACTA,1.24
20,TGAAGCACAGTA,-0.0754
21,TGATCGCTCGTA,-0.768
22,TGAGTATAAGTA,-1.2
23,TGACTCAAAGTA,-0.826
24,TGAACCAATGTA,-0.385
25,TGACGCATTGTA,1.29

row,Sequence,binding signal (log2 normalized fluorescence)
1,TGAGACCACGTA,0.49
2,TGAGGCTACGTA,-1.2
3,AGATACGTGGTA,1.61
4,TGAATAACAGTA,-0.765
5,TGATGTATGGTA,0.355
6,TGACATGTGGAA,3.11
7,TGACACGTGAAT,3.14
8,TGAGACCGGGTA,-0.913
9,TGAACACAGGTA,0.6
10,TGAGGTAATGTA,-0.585
11,TGATCTCGGGTA,-0.679
12,TGAGTTAGCGTA,-0.884
13,TGATCGTTTGTA,-0.662
14,TTAAACGTGGTA,2.95
15,TGACAGCCCGTA,0.24
16,TGAAGAAATGTA,-0.639
17,TGAGCATATGTA,1.65
18,TGCCGCGTGTTA,2.98
19,TGATGGGTTGTA,-0.142
20,CCCCACGTGGTA,3.4
21,TGATATTTGGTA,-1.42
22,TGACGCGCTGTA,0.832
23,TGATTTAATGTA,-0.78
24,TCCCACCTGGTA,2.61
25,TGACCCGTTGTA,0.101
